# The supplement of paper PMC10986608
# Some of the results follow. Single values are uncertain, as repeats are few or missing.
# Test system: Candida albicans DPL-15
# Assay: growth (OD600) after compound treatment (apparently relative to screen median) (relative growth (fraction; screen median 1.02)); DPL-15 is a caspofungin-resistant clinical isolate; higher = more fungal growth (less antifungal activity)
# Settings: 25 µM; RPMI 1640; 48 h; 30 °C
row,SMILES,growth
1,COC[C@@H]1Cc2cc(OC)c(OC)cc2[C@H](c2ccc3c(c2)OCO3)[C@H]1COC,1.15
2,COc1ccc(N2C(=O)c3[nH]nc(CC(C)C)c3C2c2ccc(F)cc2)c(OC)c1 (configuration not stated),1.15
3,COC[C@@H](O)[C@H]1OCc2cc(OC)ccc2[C@@H]1/C=C/c1ccccc1,1.09
4,COC(=O)[C@H]1[C@@H](O)[C@@]2(O)c3c(OC)cc(OS(=O)(=O)c4ccc(C)cc4)cc3O[C@@]2(c2ccc(Br)cc2)[C@@H]1c1ccccc1,1.11
5,COc1ccc(OC[C@@H]2C=C(C)C[C@]3(O2)C(=O)Nc2ccc(OC)cc23)cc1,0.868
6,COC(=O)C/C=C/[C@H](C)[C@@H](NC(=O)[C@@H](C)NC(=O)OC(C)(C)C)c1ccccc1,1.08
7,CCc1ccccc1-n1nc2c(c1CC(C)C)C(c1ccc(C)cc1)NC2=O (configuration not stated),0.839
8,Cc1ccc(S(=O)(=O)N/N=C/c2cccc(C(=O)NCC3(CC(=O)NCCCC#CCO)CCCCC3)c2)cc1,1.07
9,COC(=O)CC#C[C@H](C)[C@@H](NS(C)(=O)=O)C(C)(C)COCc1ccccc1,1.03
10,CC1=NCC(C)(C)NC2=C1C(c1ccccc1)NC2=O (configuration not stated),0.892
11,COc1cc(OC)c2c(OC)c3c(=O)cc(C)oc3cc2c1OC,0.999
12,CCN(CC)C(=O)c1c(O)cc(O)cc1CC(=O)C1CCCCC1,1.12
13,Cc1ccc(C2NC(=O)c3nn(Cc4ccccc4)c(-c4ccccc4)c32)cc1 (configuration not stated),0.884
14,CO[C@@H]1[C@H](O)CC[C@]2(O)CN(C3CCCC3)[C@@H](CC=C(C)C)[C@](C)(O)[C@@H]12,1.09
15,COc1ccc(N2C(=O)c3[nH]nc(CC(C)C)c3C2c2cccc(C(F)(F)F)c2)cc1F (configuration not stated),1.06
16,COC(=O)C1=C(C)N(Cc2ccc(C(F)(F)F)cc2)C(=S)NC1c1cccc(Br)c1 (configuration not stated),0.902
17,CS(=O)(=O)Oc1c(CC23CCCCC2=Nc2c(F)cccc23)occc1=O (configuration not stated),1.02
18,COC(=O)C1=C(C)N(CCCOC(C)C)C(=S)NC1c1ccc(OC)cc1 (configuration not stated),1.02
19,COc1ccc2c(c1)[C@@H](NCCCOc1ccccc1)[C@H](C)[C@H]2c1ccccc1,0.94
20,FC(F)(F)Oc1ccc2[nH]c3c(c2c1)CCCC3,1.09
21,COc1ccc(C2NC(=S)N(C(C)C)C(C)=C2C(C)=O)cc1 (configuration not stated),1.02
22,COc1cccc(C#C[C@@H]2C=C[C@@H](OC(C)=O)[C@@H](COC(C)=O)O2)c1,0.948
23,CO[C@@H]1[C@H](O)CC[C@]2(O)CN(c3ccc(NC(C)=O)cc3)[C@@H](CC=C(C)C)[C@](C)(O)[C@@H]12,0.911
24,COC(=O)C1=C(C)[C@]2(C)C[C@H]3[C@@]4(C)CC[C@H](O)C(C)(C)[C@@H]4CC[C@@]3(C)OC2=C(C)C1=O,1.01
25,COc1cc(CC=C(C)C)c2c(=O)c3c(F)cccc3oc2c1O,0.935
26,COc1ccc(N2C(=O)C3=C(C(C)=NCCN3)C2c2ccccc2)cc1 (configuration not stated),0.966

row,SMILES,growth
1,COc1ccc(-n2cc3c(n2)-c2cccc(c2)C(=O)N2C[C@H](O)C[C@H]2C(=O)NCC(C)(C)C3)cc1,1.2
2,CC(C)c1c2c(nn1-c1ccc(OC(F)(F)F)cc1)C(=O)NC2c1ccccc1 (configuration not stated),0.938
3,CC(=O)C1=C(C)N(Cc2cccc(C(F)(F)F)c2)C(=S)NC1c1cccc(Cl)c1 (configuration not stated),1.02
4,COC(=O)C1=C(C)N(Cc2ccccc2)C(NCC(C)C)=NC1c1cccc(F)c1 (configuration not stated),1.01
5,CS(=O)(=O)Oc1c(CC23CCCCC2=Nc2ccc(F)cc23)occc1=O (configuration not stated),1.32
6,COC(=O)c1cc2c(c3c4cc(F)ccc4n(S(=O)(=O)c4ccc(OC)cc4)c13)C(=O)N(Cc1cccc(F)c1)C2,0.952
7,CC(C)C1=NCCNC2=C1C(c1ccc(Br)cc1)N(c1ccccc1)C2=O (configuration not stated),1.03
8,CO[C@H]1CC[C@H](N2C(=O)c3[nH]nc(CC(C)C)c3C2c2ccc(F)cc2)CC1 (some centres not stated),0.961
9,CC(C)CC1=NCCNC2=C1C(c1ccccc1)N(Cc1ccccc1)C2=O (configuration not stated),1.03
10,COC(=O)C1=C(C)N(Cc2ccc(Br)cc2)C(=S)NC1c1cccc(OC)c1 (configuration not stated),0.885
11,CC1=C[C@H]2c3c(c(O)c(O)c4oc5c(C)cccc5c(=O)c34)[C@H](c3cc(O)c(O)c4oc5c(C)cccc5c(=O)c34)[C@H]2C(C)(C)C1,0.358
12,CCOc1ccc(N2C(=O)c3[nH]nc(CC(C)C)c3C2c2ccc(F)cc2)cc1 (configuration not stated),1.02
13,COc1ccc(Cn2nc(C3CCCC3)cc2Nc2cc(O)cc(O)c2C(=O)N2Cc3cn[nH]c3C2)cc1,0.981
14,O=C1C2=C(O)CC[C@@H](O)[C@]2(C(=O)O)Oc2cccc(O)c21,1.9
15,Cc1noc(C)c1S(=O)(=O)N1CCCc2nc(-c3ccc(F)cc3)ccc21,0.863
16,COc1cc(O)c2c(=O)c3c([C@H]4c5c(OC)c(O)c6oc7cc(OC)cc(O)c7c(=O)c6c5[C@@H]5C=C(C)CC(C)(C)[C@H]45)cc(OC)c(O)c3oc2c1,0.824
17,Cn1nc(-c2ccc(C(C)(C)C)cc2)cc1N,1.14
18,CC1=C(C)C[C@H]2[C@@H](C1)C(C(C)C)=CC(=O)[C@@]2(C)O,0.853
19,COc1ccc(N2[C@@H](c3cn(C)c4ccccc34)[C@@]3(O)CC[C@@H](O)[C@@H](OC)[C@@H]3[C@@]2(C)[C@H](O)CC=C(C)C)cc1,0.94
20,C=CCN1C(=O)c2[nH]nc(C)c2C1c1cccc(C(F)(F)F)c1 (configuration not stated),0.832
21,COC(=O)[C@]1(CC(C)C)NC=C(C(=O)c2ccccc2)[C@@H]1c1cccc(C(F)(F)F)c1,0.965
22,CC1(C)CNC(=O)CC2(CCN(C(=O)OC(C)(C)C)CC2)CNC(=O)c2cccc(c2)-c2cc(n[nH]2)C1,1.2
23,COC(=O)[C@@H]1[C@@H](c2ccccc2)[C@]2(c3ccc(OC)cc3)Oc3cc(OC)cc(OC)c3[C@@]23NC(Cc2ccccc2)=N[C@@]13O,1.03
24,CC(C)c1nn(C)c2c1C(c1cccc(C(F)(F)F)c1)NC2=O (configuration not stated),1.19
25,CC/C=C\CCC(OC(=O)c1ccc(Br)cc1)C1=CCCCC1=O (configuration not stated),1.18
26,COc1ccc(CO/N=C2/CCCC/C=C\CCCCOC(=O)c3c(O)cc(O)cc3C2)cc1,1.12

row,SMILES,growth
1,CC(C)Cc1c2c(nn1C)C(=O)N(Cc1ccccc1)C2c1ccc(F)cc1 (configuration not stated),0.986
2,CCCC1=Nc2ccccc2C1(CC)Cc1occc(=O)c1O (configuration not stated),1.03
3,CC(C)c1c2c(nn1C)C(=O)NC2c1ccc(Br)cc1 (configuration not stated),1.09
4,C=CCOc1c(-c2ccc(O)cc2O)oc2cc(O)cc(OCC=C)c2c1=O,1.12
5,Nc1cccc(F)c1C(=O)OCC(=O)c1ccc(N2CCOCC2)cc1,0.945
6,CCOC(=O)c1c(S(=O)(=O)Nc2ccccc2OC)c(C)n(C)c1C,1.1
7,C#CCC(C)(C)CNC(=O)CC1(CNC(=O)c2cccc(/C=N/NS(=O)(=O)c3ccc(C)cc3)c2)CCN(C(=O)OC(C)(C)C)CC1,1.17
8,COC(=O)c1ccc(N2C(=O)c3[nH]nc(CC(C)C)c3C2c2cccc(C(F)(F)F)c2)cc1 (configuration not stated),1.01
9,CNC(=O)[C@@H]1C[C@@]2(c3cn(C(=O)OCc4ccccc4)c4ccccc34)c3ccccc3N(C(=O)OCc3ccccc3)[C@H]2N1C(=O)OC(C)(C)C,1.14
10,COC(=O)C1=C(C)N(Cc2ccc(Br)cc2)C(=S)NC1c1cccc(Br)c1 (configuration not stated),0.924
11,CC(C)CCOS(=O)(=O)NC(C)(C)C,0.939
12,C[C@H]1C[C@H]2[C@H](Cc3ccccc3)C(=O)N[C@@H](Cc3ccccc3)C(=O)N2[C@H]1c1cccc(Br)c1,0.973
13,Cc1ccc2c(c1)[C@]1(Cc3occc(=O)c3OS(C)(=O)=O)CCCCC1=N2,1.23
14,COc1cc(OC)c2c(=O)c3cccc(O)c3oc2c1,0.791
15,COC(=O)c1nnc(C(C)=O)c2ccccc12,1.12
16,C/C=C/C=C/C(=O)c1cc(C)c(CCC(=O)OC)c(C)c1O,0.932
17,COc1cc([C@@H]2[C@@H](C(=O)NCC3CC3)[C@H](C(=O)NCC3CC3)[C@H]2c2ccc(O)c(OC)c2)ccc1O,1.02
18,CC[C@H](C)C(NC(=O)O[C@H]1C(=O)c2cc(OC)ccc2O[C@@H]1c1ccc(OC)c(Br)c1)C(=O)OC (some centres not stated),0.828
19,CC(=O)C1=C2C=C([Si](C)(C)C)CCN2C(=O)NC1c1ccccc1 (configuration not stated),1.13
20,CCCCCOS(=O)(=O)NC(C)(C)c1ccccc1,1.15
21,CN1C(=O)[C@@]2(C3=C(CCCC3=O)Oc3c2c(=O)oc2ccccc32)c2ccccc21,0.998
22,CCOc1ccc(-n2c(C)c3c(C)nnc(Nc4ccccc4)c3c2C)cc1,0.954
23,CCOc1ccccc1C1CC(=O)Nc2cc3c(cc21)OCO3 (configuration not stated),0.993
24,c1ccc(CCN2CCCC(CN(Cc3ccccc3)Cc3ccccc3)C2)cc1 (configuration not stated),0.994
25,CC(C)=CCc1cc(O)c(O)c2oc3ccccc3c(=O)c12,0.718
